Reference: PubChem BioAssay AID250 (DTP/NCI, 2004)
Values joined by “and” are separate entries in the source; they are usually repeats but may differ in a detail not shown here. Equal values may be shown once. This continues a long series; more values of the same kind are listed elsewhere. Toxic doses and inconclusive results are not listed. The calls were made as follows: active = survival T/C of 150% or more; inactive = T/C below 125% in these data.

Tested on: BDF1 mice, L1210 leukemia sc, survival T/C
Assay: NCI In Vivo Anticancer Drug Screen. Data for tumor model L1210 Leukemia (subcutaneous) in B6D2F1 (BDF1) mice
Conditions: endpoint: median survival time, higher = longer survival
Description: The antitumor activity of compounds was measured in mice bearing transplantable tumors. Survival or tumor size were measured and the results are expressed as the measurement made in the treated group (T) divided by the measurement made in the vehicle treated control group (C). The tumor model used in this assay is L1210 Leukemia (subcutaneous) in B6D2F1 (BDF1) mice

[1] = dose: 65.0 mg/kg/injection, schedule: Q02DX Z (sc), vehicle: saline
[2] = dose: 65.0 mg/kg/injection, schedule: Q16DX002 (ip), vehicle: saline
[3] = dose: 108.0 mg/kg/injection, schedule: Q## X Z (sc), vehicle: saline
[4] = dose: 180.0 mg/kg/injection, schedule: Q## X Z (sc), vehicle: saline

Measured: T/C

N=c1ccn2c(n1)OC1C(O)C(CO)OC12 (centres undefined)
active: dose: 400.0 mg/kg/injection, schedule: Q## X009 (sc), vehicle: water 305 % of control
inactive: dose: 800.0 mg/kg/injection, schedule: Q01DX009 (sc), vehicle: water 77 % of control

O=P1(N(CCCl)CCCl)NCCCO1 (centres undefined)
active: dose: 23.0 mg/kg/injection, schedule: Q#A X Z (sc), vehicle: saline 330 % of control | dose: 30.0 mg/kg/injection, schedule: Q01DX001 (ip), vehicle: saline 475 % of control | dose: 39.0 mg/kg/injection, schedule: Q01DX Z (ip), vehicle: saline 380 % of control | dose: 39.0 mg/kg/injection, schedule: Q01DX Z (sc), vehicle: other 250 % of control | dose: 65.0 mg/kg/injection, schedule: Q01DX Z (ip), vehicle: saline 245 % of control | dose: 65.0 mg/kg/injection, schedule: Q01DX Z (oral), vehicle: saline 310 % of control | [1] 370 % of control | dose: 65.0 mg/kg/injection, schedule: Q## X Z (sc), vehicle: saline 295 % of control | dose: 100.0 mg/kg/injection, schedule: Q01DX009 (sc), vehicle: saline 247 % of control | dose: 100.0 mg/kg/injection, schedule: Q07DX003 (sc), vehicle: saline 266 % of control | dose: 108.0 mg/kg/injection, schedule: Q02DX Z (sc), vehicle: saline 260 % of control | dose: 108.0 mg/kg/injection, schedule: Q07DX Z (sc), vehicle: saline 286 % of control and 360 % of control | [3] 335 % of control | dose: 169.0 mg/kg/injection, schedule: Q07DX003 (sc), vehicle: saline 250 % of control | dose: 180.0 mg/kg/injection, schedule: Q07DX Z (sc), vehicle: saline 400 % of control | [4] 270 % of control | dose: 200.0 mg/kg/injection, schedule: Q07DX003 (sc), vehicle: saline 272 % of control and 277 % of control | dose: 200.0 mg/kg/injection, schedule: Q07DX004 (sc), vehicle: saline 277 % of control and 300 % of control | dose: 264.0 mg/kg/injection, schedule: Q07DX003 (sc), vehicle: saline 300 % of control and 316 % of control | dose: 300.0 mg/kg/injection, schedule: Q01DX014 (sc), vehicle: saline 274 % of control | dose: 300.0 mg/kg/injection, schedule: Q07DX Z (sc), vehicle: saline 295 % of control
inactive: dose: 39.0 mg/kg/injection, schedule: Q08DX003 (ip), vehicle: saline 72 % of control | dose: 65.0 mg/kg/injection, schedule: Q08DX003 (ip), vehicle: saline 85 % of control | [2] 85 % of control | dose: 108.0 mg/kg/injection, schedule: Q16DX002 (ip), vehicle: saline 84 % of control | dose: 180.0 mg/kg/injection, schedule: Q16DX002 (ip), vehicle: saline 84 % of control | dose: 400.0 mg/kg/injection, schedule: Q01DX001 (ip), vehicle: saline 64 % of control | dose: 500.0 mg/kg/injection, schedule: Q01DX001 (ip), vehicle: saline 61 % of control | dose: 500.0 mg/kg/injection, schedule: Q01DX014 (sc), vehicle: saline 69 % of control | dose: 600.0 mg/kg/injection, schedule: Q01DX001 (ip), vehicle: saline 61 % of control | dose: 600.0 mg/kg/injection, schedule: Q01DX001 (sc), vehicle: saline 67 % of control | dose: 625.0 mg/kg/injection, schedule: Q01DX001 (sc), vehicle: saline 59 % of control

O=NN(CCCl)C(=O)NCCCl
active: dose: 14.0 mg/kg/injection, schedule: Q01DX001 (ip), vehicle: saline 800 % of control | dose: 14.0 mg/kg/injection, schedule: Q07DX Z (sc), vehicle: saline 663 % of control and 750 % of control | dose: 23.0 mg/kg/injection, schedule: Q01DX001 (oral), vehicle: saline 661 % of control | dose: 39.0 mg/kg/injection, schedule: Q01DX001 (oral), vehicle: saline 857 % of control
inactive: dose: 5.0 mg/kg/injection, schedule: Q16DX002 (ip), vehicle: saline 69 % of control | dose: 39.0 mg/kg/injection, schedule: Q16DX002 (ip), vehicle: saline 77 % of control | [2] 69 % of control

O=C(Nc1ccc(C2=NCCN2)cc1)c1ccc(C(=O)Nc2ccc(C3=NCCN3)cc2)c(Cl)c1
active: dose: 14.0 mg/kg/injection, schedule: Q01DX Z (sc), vehicle: saline 219 % of control and 227 % of control | dose: 23.0 mg/kg/injection, schedule: Q01DX Z (sc), vehicle: saline 223 % of control | dose: 39.0 mg/kg/injection, schedule: Q02DX Z (sc), vehicle: saline 225 % of control | [1] 210 % of control | [3] 210 % of control | [4] 215 % of control | dose: 300.0 mg/kg/injection, schedule: Q01DX001 (sc), vehicle: saline 210 % of control | dose: 500.0 mg/kg/injection, schedule: Q01DX001 (sc), vehicle: saline 210 % of control | dose: 833.0 mg/kg/injection, schedule: Q01DX001 (sc), vehicle: saline 225 % of control

S=c1nc[nH]c2nc[nH]c12
active: dose: 8.4 mg/kg/injection, schedule: Q## X Z (sc), vehicle: other 168 % of control | dose: 14.0 mg/kg/injection, schedule: Q## X Z (sc), vehicle: other 168 % of control | dose: 23.0 mg/kg/injection, schedule: Q#A X Z (sc), vehicle: other 163 % of control | dose: 39.0 mg/kg/injection, schedule: Q#A X Z (sc), vehicle: other 157 % of control | dose: 40.0 mg/kg/injection, schedule: Q01DX009 (ip), vehicle: other 168 % of control | dose: 64.8 mg/kg/injection, schedule: Q01DX Z (sc), vehicle: other 172 % of control | dose: 65.0 mg/kg/injection, schedule: Q01DX Z (ip), vehicle: other 170 % of control | dose: 65.0 mg/kg/injection, schedule: Q01DX Z (oral), vehicle: other 175 % of control | dose: 65.0 mg/kg/injection, schedule: Q#A X Z (sc), vehicle: other 173 % of control | dose: 78.0 mg/kg/injection, schedule: Q01DX Z (sc), vehicle: other 158 % of control | dose: 90.0 mg/kg/injection, schedule: Q01DX009 (ip), vehicle: saline 166 % of control and 168 % of control (2×) | dose: 108.0 mg/kg/injection, schedule: Q01DX Z (oral), vehicle: other 165 % of control | dose: 108.0 mg/kg/injection, schedule: Q02DX Z (sc), vehicle: other 177 % of control and 189 % of control | dose: 108.0 mg/kg/injection, schedule: Q#A X Z (sc), vehicle: other 157 % of control | dose: 120.0 mg/kg/injection, schedule: Q01DX009 (ip), vehicle: saline 161 % of control | dose: 130.0 mg/kg/injection, schedule: Q01DX Z (sc), vehicle: other 165 % of control | dose: 180.0 mg/kg/injection, schedule: Q02DX Z (sc), vehicle: other 166 % of control and 168 % of control | dose: 300.0 mg/kg/injection, schedule: Q02DX Z (sc), vehicle: other 166 % of control
inactive: dose: 240.0 mg/kg/injection, schedule: Q01DX009 (ip), vehicle: saline 73 % of control
